Where “and” joins values, the source holds several entries; their conditions need not be identical. Equal values may be shown once. In all, about 290,000 compounds went through this assay and about 2,100 (0.72%) were called active. Inconclusive means that the source gave no clear call. Such entries were picked first, then a sample of the others. The call rests on the fitted dose curve; in most records, active means well fitted inhibition curve with a large enough effect; inconclusive means small, poorly fitted or top-dose-only effect, or effect the other way; inactive means flat fitted curve, though single readings scatter. A potency beside an inconclusive call is a rough fit, not a confirmed value. More than one record can exist for a structure, and the calls need not agree.
The compounds below were run against Fructose-bisphosphate aldolase (Giardia intestinalis (strain ATCC 50803 / WB clone C6)) (UniProt A8B2U2) (assay: qHTS Assay for Inhibitors of Fructose-1,6-bisphosphate Aldolase from Giardia Lamblia). Details: purified Giardia FBPA; activity, negative = inhibition: at 59.6 µM (top of the series) unless noted.
In short: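 40 nM FBPA preincubated 10 min at RT with compound (up to 57.5 uM final), then substrate plus GAPDH/TPI/NAD/arsenate coupling and diaphorase/resazurin added. Fluorescence read after 20 min at RT, 525/598 nm.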
Further: nearly all actives have a fitted effect of over 55% in size.
On the % scale 0 is the no-effect control and ±100 the full control effect; potency means the concentration at half of the fitted maximal effect; tags describe the fitted curve by direction and shape.

Sequence of UniProt A8B2U2 (A8B2U2 whole entry, looked up): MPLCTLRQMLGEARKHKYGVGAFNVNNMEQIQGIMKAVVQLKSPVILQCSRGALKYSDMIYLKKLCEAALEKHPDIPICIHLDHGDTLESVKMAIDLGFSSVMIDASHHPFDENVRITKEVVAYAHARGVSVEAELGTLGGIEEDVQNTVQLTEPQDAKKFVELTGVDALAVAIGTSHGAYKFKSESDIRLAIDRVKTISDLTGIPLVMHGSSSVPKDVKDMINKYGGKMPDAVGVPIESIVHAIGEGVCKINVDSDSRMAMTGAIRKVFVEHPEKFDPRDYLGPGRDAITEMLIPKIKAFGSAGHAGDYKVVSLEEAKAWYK

| SMILES | Potency | activity, negative = inhibition |
| --- | --- | --- |
| CCOc1cc(NC(=S)NCCCN2CCOCC2)c(OCC)cc1NC(=O)c1ccc(OC)cc1 | inconclusive: 14.1 µM [inhibitor, partial curve] |  |
| COc1cc(/C=C/C(=O)c2c(O)cc(C)oc2=O)cc(OC)c1O | active: 19.9 µM and active: 15.8 µM |  |
| C(=N\NC1=Nc2cccc3cccc1c23)/c1cccnc1 | inconclusive: 17.7 µM [inhibitor, partial curve] |  |
| Nc1c2c(nc3ccc(Br)cc13)N(C1CCCCC1)CC2 | active: 17.7 µM |  |
| CN(Cc1ccon1)Cc1cn(C)nc1-c1cccc(Cl)c1 | inconclusive: 22.3 µM [activator, partial curve] |  |
| CCOc1cc(N2CCOCC2)c(OCC)cc1NC(=O)COC(=O)CCc1c[nH]c2ccccc12 | inconclusive: 15.8 µM [inhibitor, single point] |  |
| Cc1cc(-c2ccccc2)nc(N/N=C/c2ccccc2F)n1 | inconclusive: 31.6 µM [inhibitor, single point] |  |
| COC(=O)CCCC1=CC2=CC(=O)C(C)(OC(=O)CCc3ccccc3)C(=O)C2=CO1 (stereo not given) | inconclusive: 15.8 µM [inhibitor, single point] |  |
| COc1cccc(/C=C2\N=C3CCCCCN3C2=O)c1 |  | inactive: -2.34% |
| O=C(COc1cccc2cccnc12)N/N=C/c1ccccc1O |  | inactive: 21.5% |
| Cc1cc(C)n(CC(=O)O)c(=O)c1[N+](=O)[O-] | active: 7.92 µM |  |
| CC1=NN(c2ccccc2)C(=O)C1N=Nc1ccccc1 (stereo not given) | inconclusive: 17.7 µM [inhibitor, single point] |  |
| N#Cc1c(N)oc(-c2cccs2)c1-c1cccs1 | inconclusive: 22.3 µM [inhibitor, partial curve] |  |
| COCCN(C(=O)CSc1nnc2cc(C)c3ccccc3n12)c1c(N)n(Cc2ccccc2)c(=O)[nH]c1=O |  | inactive: 0.796% |
| Cc1nonc1NC(=O)OC1CCCCC1 |  | inactive: 1.95% |
| O=C(COC(=O)CCc1c[nH]c(=O)[nH]1)Nc1ccccc1 | inconclusive: 14.1 µM [inhibitor, partial curve] |  |
| CC1=N/C(=C/c2ccc([N+](=O)[O-])cc2)C(=O)N1c1ccc(Cl)cc1Cl |  | inactive: 2.47% |
| Cc1ccc(NS(=O)(=O)c2ccc(Br)s2)nc1 | active: 7.92 µM |  |
| CCOC(=O)C1CCN(C(=O)c2ccc3c(c2)NC(=O)/C(=C\c2cccc(C)c2)S3)CC1 |  | inactive: -18.1% |
| CCn1c(SCC(=O)c2ccccc2)nc2sc3c(c2c1=O)CCN(C)C3 |  | inactive: -1.13% |
| O=S(=O)(Nc1cccnc1)c1ccc(C2CCCCC2)cc1 |  | inactive: 23% |
| CC(=O)Nc1ccc(S(=O)(=O)Oc2ccc(/C=N/NC(=O)c3ccc(Cl)cc3)cc2)cc1 |  | inactive: 3.85% |
| CCN1CCN(Cc2cc(OC)c(OC)cc2[N+](=O)[O-])CC1 | inconclusive: 7.06 µM [inhibitor, single point] |  |
| Cc1ccc2c(c1)c1nnc(SCC(=O)Nc3ccc(N(C)C)cc3)nc1n2CC(=O)O | inconclusive: 35.5 µM [inhibitor, partial curve] |  |
| Cc1ccc(C(=O)CCNc2ccccc2)o1 |  | inactive: -3.11% |

| SMILES | Potency | activity, negative = inhibition |
| --- | --- | --- |
| N#CC(C#N)=Cc1ccc(O)c(O)c1 | active: 14.1 µM |  |
| CC(C)[C@H]1C(=O)N2CCC[C@H]2[C@]2(O)O[C@](NC(=O)[C@@H]3C=C4c5cccc6[nH]cc(c56)C[C@H]4N(C)C3)(C(C)C)C(=O)N12 | inconclusive: 1.99 µM [inhibitor, full curve] |  |
| Cc1nc(NC(=O)CN2CCN(c3ccccc3F)CC2)sc1C(=O)N(C)C | active: 3.16 µM |  |
| COc1ccccc1NC(=O)Cc1noc(CN(C)Cc2cccs2)n1 |  | inactive: 2.89% |
| C=CCn1c(=S)[nH]c2sccc2c1=O | inconclusive: 2.81 µM [inhibitor, full curve] |  |
| Cn1c2c(c(=O)n(C)c1=O)C1(C(=O)Nc3ccccc31)C(C#N)=C(N)O2 (stereo not given) | inconclusive: 1.26 µM [inhibitor, full curve] |  |
| COCCNC(=O)CSc1nc2cc(OC)c(OC)cc2c(=O)n1CCC1=CCCCC1 |  | inactive: -0.365% |
| O=C1NC(=O)C(=CN2CCc3ccccc32)C(=O)N1 | inconclusive: 3.54 µM [inhibitor, full curve] |  |
| Cc1cc(C(=O)N/N=C/c2ccccn2)n[nH]1 | inconclusive: 22.3 µM [inhibitor, single point] |  |
| COc1ccc(C(NC(=O)c2ccco2)c2ccc(OC)c(OC)c2)cc1OC |  | inactive: 13.8% |
| COc1cc(C(=O)OCC(=O)NCc2ccc(F)cc2)ccc1OCC(C)C |  | inactive: 1.39% |
| CCOc1cc(-c2c(C#N)c(=O)[nH]c3c2c(C)nn3-c2ccc(F)cc2)ccc1O | inconclusive: 20 µM [inhibitor, partial curve] |  |
| Cc1ccccc1Cn1c(C)nc2ccc([N+](=O)[O-])cc2c1=O |  | inactive: 7.63% |
| NC(=Nc1ccccc1)Nc1ccccc1 |  | inactive: -10.3% |
| CCC(=O)c1cn(CC(=O)Nc2ccc(C)cc2)c2ccccc12 |  | inactive: 8.1% |
| O=C(CSc1nc2ncccc2[nH]1)NC1CCCC1 | inconclusive: 10 µM [inhibitor, partial curve] |  |
| COc1ccc(NC(=O)c2cc(CN3C(=O)c4ccccc4C3=O)ccc2OC)cn1 | inconclusive: 8.91 µM [inhibitor, partial curve] |  |
| COc1ccc(CCNC(=O)CNCC2CCCCC2)cc1OC | inconclusive: 11.2 µM [inhibitor, partial curve] |  |
| Oc1c(Br)cc(Br)cc1CNc1cccc2cccnc12 | inconclusive: 3.16 µM [inhibitor, full curve] |  |
| FC(F)(F)c1cnc(NNC(=S)Nc2ccccc2Cl)c(Cl)c1 |  | inactive: 22.9% |
| CC(C)c1cc(C(=O)N2CCCC(N3CCN(c4ccc(F)cc4)CC3)C2)n(C)n1 (stereo not given) |  | inactive: -14.6% |
| CCN(CC)CCN(C(=O)c1ccc2c(c1)OCCO2)c1nc2cc3c(cc2s1)OCO3 | inconclusive: 22.4 µM [inhibitor, partial curve] |  |
| COc1ccc(CNCc2cc(C)c(OC)cc2C)c(OC)c1 | inconclusive: 17.8 µM [inhibitor, partial curve] |  |
| O=c1cc2[nH]c3ccccc3c(=O)n2nc1-c1ccccc1 | inconclusive: 25.1 µM [inhibitor, partial curve] |  |
| O=c1c(O)cc(C2Oc3cc(O)cc(O)c3CC2O)cc2c(C3Oc4cc(O)cc(O)c4CC3O)cc(O)c(O)c12 (stereo not given) | active: 0.889 µM |  |

| SMILES | Potency | activity, negative = inhibition |
| --- | --- | --- |
| NC(=O)C1CCCN(C(=S)NCc2ccc3c(c2)OCO3)C1 (stereo not given) | inconclusive: 35.4 µM [inhibitor, single point] |  |
| O=C(/C=C/c1ccco1)NC(=S)Nc1ccccn1 | inconclusive: 14.1 µM [inhibitor, partial curve] |  |
| CCOC(=O)c1ccc(N=Nc2c(C)[nH]n(-c3ccccc3)c2=O)cc1 | active: 10 µM |  |
| Cc1oc2c(O)c(O)ccc2c(=O)c1-c1cnn(-c2ccccc2)c1 | inconclusive: 17.7 µM [inhibitor, single point] |  |
| Cc1ccc(NC(=O)CC2SC(=O)N(c3ccccc3)C2=O)cc1 (stereo not given) | inconclusive: 12.6 µM [inhibitor, partial curve] |  |
| Cc1ccc(/C=C2/NC(=O)N(Cc3ccccc3)C2=O)o1 | inconclusive: 15.8 µM [inhibitor, partial curve] |  |
| O=C1NC(c2cccs2)Nc2sc3c(c21)CCCC3 (stereo not given) | inconclusive: 28.2 µM [inhibitor, single point] |  |
| CCCCN(CC)S(=O)(=O)c1ccc(C(=O)Nc2nnc(CSC)o2)cc1 | inconclusive: 17.7 µM [inhibitor, single point] |  |
| CN1CC2=Cc3ccccc3OC23Oc2ccccc2C=C3C1 | inconclusive: 17.7 µM [inhibitor, partial curve] |  |
| COc1ccc(CN2CCN(C(=O)COc3ccc4ccccc4c3)CC2)c(OC)c1 | inconclusive: 28.2 µM [inhibitor, partial curve] |  |
| CCCOc1ccc2ccccc2c1/C=C1\SC(=O)NC1=O | inconclusive: 14.1 µM [inhibitor, partial curve] |  |
| c1ccc2cc3c(NCCN4CCOCC4)ccnc3cc2c1 | inconclusive: 2.51 µM [inhibitor, full curve] |  |
| CC1(C)CC(=O)C2=C(C1)N(c1cccc(O)c1)C1=C(C2)C(=O)CC(C)(C)C1 | inconclusive: 15.8 µM [inhibitor, partial curve] |  |
| Cc1ccc2nc(-c3ccc4c(c3)NC(=O)CO4)cn2c1 | inconclusive: 15.8 µM [inhibitor, single point] |  |
| CCN(CC)CCN(C(=O)c1ccc2c(c1)OCCO2)c1nc2c(Cl)cccc2s1 | inconclusive: 25.1 µM [inhibitor, partial curve] |  |
| CCCCN(CC)c1nc(-c2ccncc2)nc2ccccc12 | inconclusive: 4.46 µM [inhibitor, full curve] |  |
| CC(C)(C)C(=O)Nc1ccccc1C(=O)Nc1cc(Cl)ccc1Cl |  | inactive: -0.133% |
| CCOc1cc(C(=S)N2CCOCC2)ccc1OC(=O)c1cccc(C)c1 |  | inactive: -1.5% |
| O=C(NC(=S)Nc1ncccn1)c1ccccc1Cl | active: 3.54 µM |  |
| O=C(N[C@@H](Cc1c[nH]c2ccccc12)C(=O)O)c1ccccc1Cl |  | inactive: -10.9% |
| O=[N+]([O-])c1cc(Cl)c(O)c2ncccc12 | inconclusive: 4.46 µM [inhibitor, full curve] |  |
| COc1ccc(C(=O)NC(=S)NNC(=O)c2cnccn2)cc1 | inconclusive: 35.4 µM [activator, single point] |  |
| O=C1OC(c2ccccc2)/C(=C(/O)c2ccc(Cl)cc2)C1=O (stereo not given) | inconclusive: 3.15 µM [activator, partial curve] |  |
| Cc1ccc(NS(=O)(=O)c2ccc(C3CCCCC3)cc2)cc1 |  | inactive: -6.63% |
| CC1c2cccc(O)c2C(O)=C2C(=O)[C@]3(O)C(O)=C(C(N)=O)C(=O)C(N(C)C)C3C(O)C21 (stereo not given in full) | inconclusive: 15.8 µM [inhibitor, partial curve] |  |

From PubChem BioAssay AID2451 (National Center for Advancing Translational Sciences (NCATS), 2010)
